Measured values published in paper PMC10726135.
The other results are listed elsewhere or left out. At the low end of the ranking the order means little. The protein was read in a cell extract, so binding may be indirect.

Biological target: T1, HNF4alpha2 (COS-7 nuclear extract) (UniProt P41235)
T1 sequence: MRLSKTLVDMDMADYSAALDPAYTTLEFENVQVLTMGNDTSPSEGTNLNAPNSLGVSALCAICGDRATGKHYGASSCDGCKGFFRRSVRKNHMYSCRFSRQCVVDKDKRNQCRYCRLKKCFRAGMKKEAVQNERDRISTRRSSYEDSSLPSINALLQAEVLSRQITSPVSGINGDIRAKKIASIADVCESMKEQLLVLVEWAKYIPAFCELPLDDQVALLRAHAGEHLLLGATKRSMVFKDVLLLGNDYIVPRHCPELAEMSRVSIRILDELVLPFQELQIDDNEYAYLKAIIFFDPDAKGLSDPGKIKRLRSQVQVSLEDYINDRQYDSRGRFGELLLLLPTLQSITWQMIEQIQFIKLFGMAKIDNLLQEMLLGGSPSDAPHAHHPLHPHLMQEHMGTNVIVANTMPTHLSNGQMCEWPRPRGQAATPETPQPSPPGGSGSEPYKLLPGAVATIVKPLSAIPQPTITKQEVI
Assay: protein-binding microarray
Settings: COS-7 nuclear extract on double-stranded Agilent 4x180k PBM; binding buffer, salt, pH and temperature not given; high values mean tight binding; double strand, one strand shown; sequences stand for … in …GCCTAGGGAGATTAGAGTATCGGTCGA

Row | Sequence | binding signal (log2 normalized intensity)
1 | ATCATAGTGTTTGCCTTATTTGAACACAGT | 2.31
2 | CCTCCCCCTTGGTGTTTAAACACATTTTTT | 2.14
3 | ACCGGCAGAGAGAAGCCACTGCGACCTTTG | 4.92
4 | GGAGGTTATCTTGGGGCTGATGTCTTTCTG | 1.47
5 | AGTTGGTTGGAGCTATGGGCAGAAAAAAAT | 0.323
6 | TAAAGTCCGAACCTGCCAAAGAAGAAAACA | -1.09
7 | CCTTTGAAGTGGGGGTGAGTCAGTCCCCAG | 1.8
8 | AGAGCATGAGAACTTCTTCCAATGAAAGGT | -1.02
9 | ACGGTGCAGGGAGGATATCCCTCCGCCTCC | -1.03
10 | CTTCCACCAGGGCTAGACCCGTCAGCCCTG | -0.982
11 | GGGCCTCCATATTTGGAAGTAAGAACCCCA | 1.69
12 | AAAGAGCCATGGACTGCTGACCTTTGAACC | 9.3
13 | GTCATTGATGAAACTCCTTCCCTTTCATGT | 1.5
14 | AATCAAACTGAACTTTGAAACAAGCCCATC | 2.87
15 | ACGCAAGCGAGTAAGGCCCGTGAGATTGAA | -0.911
16 | CAGACCTTTGCCCTTTGTTTACATAGCTCC | 3.7
17 | CCTCTGCCTCTTGACCCCTTGGCCCCGCTG | 4.36
18 | GTAGACTAACGTATGGACTTTCTGATGTCA | 1.66
19 | GCAGTTTCTGCTATCTGCCTGCAGGAGAGA | -1.2
20 | CTGAACTTTAAACTGGTGTGTCTTGCCTTT | 2.06
21 | CCTACTCATTCATATCACCTAGGTGGAATC | 1.68
22 | ATTTCACAAAGGGCAAAGTCCCCTTTCCTC | 5.42
23 | AAACAGGGAGCAGGCAGATTTGACCTACGG | 1.57
24 | GACACACCTAGGGAGTTAATCACAGGATTT | -1.25
25 | GGGAACAAAACTTCACCTCCCCTAGACTTA | 1.71

Row | Sequence | binding signal (log2 normalized intensity)
26 | CCTTATGTAACTGTAACTATATTGACCACC | 1.57
27 | TGGAGTTTGCCCTTCACAAATTAGACAAGG | 1.57
28 | ACAGATTAAGTCACGTGGAGATAACACACA | -1.1
29 | ACACAATATTATGTTTTGTTATCTGTGCCA | 1.17
30 | GTTCCAAAGTCCACCGTGGTGTAGAGGCCC | 3.48
31 | GAGGGGATTGATGGAATTCCACTGACTGCT | -1.06
32 | ACCCCCAACTTCCCCAACCCTTGCACTGCT | 3.93
33 | AAAGGTCTGAGAACCAAGAGAGCCATTGGT | -0.915
34 | AGATTTGAATATGTACATGGACTTTGAACC | 10.3
35 | CGGGTTCTGCGCAGGGAGGAGCGCATCGGG | -1.18
36 | CTCTCCCAGTGGAATGCAAATATAGAAATA | 0.784
37 | CAGTACTGAAACATGCCTATGACCGAGGGT | 0.809
38 | GTTAAAGTCCGTTACAGACAGGCAGCCCCT | -1.02
39 | AAGGCCACAGCTCAGATCACAAAAGATGGA | -1.13
40 | CCCCAAAGGCTCTCTGTTGACCACCTGCCC | 2.01
41 | GGAGTCAAGCAAACACACTTGCTCTAATCC | -1.07
42 | CTCCGCTAAGTGGCTCGACAACGATTTGGG | -1.06
43 | GTAAATTCTTGAGCAGTCACTGGGAGATAT | -0.32
44 | ATGACAAAGGTGAGAGAGCATCCAGATAAA | -0.979
45 | CAGAGCACAGCAGGGCAGGGTATGCCTGAC | -0.935
46 | ATGACTCCAAAGTTCAAACTCTGAAAGCAC | 2.34
47 | GACACTGCTCTCTCCAGGGGAGGGTGACCA | 0.276
48 | GTCTGACAGATAAGATTTGGAAAATATTGC | -1.04
49 | TAACACCAGATAAACAGAAGAAAGGGGCTA | -1.12
50 | GAAGCCACAGAAGTCTTTCCCTGCCAGTTC | -1.16

Row | Sequence | binding signal (log2 normalized intensity)
51 | GCCCAGTCAAACCCCGCGCTCCAGGCATGG | -0.783
52 | ATGTGTTAGGCAAGCAAACTGCAAATACAG | -0.697
53 | GAGTCTGTTGTCTAACATTTTTGACCTTCA | 4.09
54 | GCCCCATAACCACCATTAGACTCTGCCCTC | 4.41
55 | GCCGGCGCAGCCGCGCTCCGCCCCGTTCCC | 2.19
56 | CTCTTACAACGAGGTGCCAGAAACCTGACT | -1.02
57 | TATCATACTCAGCTAATCTAGAGACACTAT | -1.25
58 | CTGTGGATAGCTCAGGGATTAACGACTCAT | -0.792
59 | TGTTTGCCTCTCAGCTCATTCAAAGTCCAA | 3.44
60 | AGGTTTCCACTGATAAAGTTCTTTTGTGTG | 1.63
61 | GGCAGAGTTGTTTGCAGAGGGAAAGCGAGA | -1.12
62 | TCATGACAAAGAAATGTAACCTTTGGCCAA | 6.62
63 | CCTGACTCAAGAAAGGATCTCACCCAAACC | -1.31
64 | GGAACTGTCCACCAAGGAGGTGCTGACAGG | -1.07
65 | TTCCTGGCAGCCAGCTGGTTTGCCTCTCTT | -1.17
66 | CTGGCCTTCCTGGCCCTAGCTGGGTTTTTC | -1.11
67 | TGAGATTTTGCTCAACAAATATTAGCTGTT | -0.795
68 | TGTCCATGGTGACCATGTGATGTGAAGAGT | 0.264
69 | CCTCCCCCCTTCTGTTTCCAGAAATCTGAC | 2.6
70 | ATGTTCCTTATCAGAGAGGCCTCACAGCCT | -1.15
71 | TCATAAAGAACAGTTATTCTTAGCTTTCCT | -0.862
72 | CTCCACCTACGCTACGCACCAGGCATACTC | -1.26
73 | ACATTCCAGGACCTTTGCTCATGTCCTCTT | 2.5
74 | AGATAACAAACTTGATTGGGTATCAAGGGT | -0.836
75 | TCCCATCCCCAGAGCCCCCTTGATGCATCA | 4.64

Row | Sequence | binding signal (log2 normalized intensity)
76 | CTGCAAAGAAGTCAAACTTTGGACCCACTG | 5.97
77 | TCGAGCAAGGTTCAGCACATTTATGAGGCC | 0.497
78 | GGGGACCTTTGGCCTTTACCTGTTACTTAT | 3.57
79 | TGTCACCCAGCCAGAATTCTCCCTGCAGTC | -1.12
80 | CTCAAGCTTCAGGAGTCCACTGTGTTCTTG | 1.67
81 | GCGCCAGGCTGGGGGCAGAGTTCACCCCAT | 3.34
82 | TGAAATTTGGCCTGCTGAGCCCAATCTAGC | -1.2
83 | AGATAGTGACGGAGGTGACCTTTGGTTGTC | 5.52
84 | GCGCGGGCAGGTTGCCCTTTCGGTGGGACT | 2.7
85 | GCAAGTCGAGCAAGGTTCAGCACATTTATG | 0.771
86 | TGAGACGCAAGCATATCTCTAGATCTCAGT | -1.05
87 | CTGGTGTGAGGTCAGTTGATAAACAGATAA | 1.45
88 | TGGTGTAAGCACTTGTGGTATGTTTGGATT | 2.41
89 | GTGGGTGCCAAACAAAAAGGGCAAAGGTCA | 8.12
90 | AAAGTTTCACTTTCTCTTATAGCTCAACCC | 0.711
91 | GGCCTGCATGACTACATTCTTTGAAGACTA | -0.971
92 | AGGTGCTGCCTTGGAGGTGAGGGTTACAGG | 0.356
93 | AGCACGGCCAGGATTAACCACAGAAATGCC | -1.09
94 | GGAGGGGTAAGGGTGGGGGTGGGGAGGATA | -1.13
95 | AGCCTTATCAGTATCAATGAGATCTCCCCA | 2.28
96 | TGTAACTGTAACTATATTGACCACCTCCTC | 1.76
97 | GAGTCTTAGGGAGGGGCCAGGACAAAGGTC | 5.72
98 | TGAGTTATTGGAAGAATGGAATTGCCATTG | 1.29
99 | GCAAGTAGAGCTGCTTACATTTTGCTCTGT | -0.121
100 | TGAGAGAGCATCCAGATAAAGCTGAAGAAA | -0.814

Row | Sequence | binding signal (log2 normalized intensity)
101 | GTGAGCCACCACGCCCGGCCAAAGACCACA | -1.03
102 | AGCAATTTAGCAGCACCATCCTACAGGGTA | -1.15
103 | AGGGGAAAAAGGACTCTGGGAAGATTAAGG | -1.1
104 | TGATAGTCTGCTACCATCAGATAAGCTCAG | -1.07
105 | TAGAATCTGCAGCCCCTTTTGGAATCCCCA | 4.05
106 | GAGGGTAAATTCCTTCTTTCTCTCTCCCTT | 1.48
107 | AGTCCAACTTCTGCAGGCACCTGGCTCGAC | -1.08
108 | CTTAATTTTCTCCTTTCCTCCTATGTCAAT | 1.51
109 | CTCATAGCTCCAGAGCCACCGCTACCACAC | -1.13
110 | AGGCTCCCTGGCCACAGGAATGTGACCTTC | 5.67
111 | AGGGAGGTGATTGGTGAGTCTTAGGGAGGG | -1.19
112 | CCCTCCCCCTGCATGAACCTTTGCTCCCTG | 5.48
113 | AGGGCCCTTCACTATTTTCAAAGGTCAACA | 3.49
114 | GGTTGAATTTCAGAGGGAAGAGGAAGCATC | -0.981
115 | GAATGCCTAGGGGGAAGCCCCTGCTTCCGG | -1.08
116 | CAGGCAACCAAGGGTACACACCGTTAGCCA | -1.08
117 | CACTGTATCAGGGAGATAGTCTGAGAGTCA | -1.11
118 | AACTTGAAGCAGGCAGGCAGCTTCCAGGTG | -1.23
119 | CAAAGTGCGACAGGGAGATTTCCTGGGAGA | -1.28
120 | ACTCTAAAGGGAATAACCTTTGAGCTGAGT | 4.73
121 | AAGGCTGCAAGCAAACCTGCCCTTTGCTCC | 5.57
122 | TTCTGCCCCTTGCTCCTGCTTGCTGGCTTT | 1.2
123 | ACAAGTGTGATTTTTAGATAGTGACTTGAA | 0.858
124 | CTGGGTTATGATCCTGGCTCTCCCACTTAT | 1.2
125 | AAAAGGGCAAAACTGTCACAAGAAAGGCAG | -1.13

Row | Sequence | binding signal (log2 normalized intensity)
126 | CACACCCCTGGGGAAGGCAGGTCTCTCTCA | -1.16
127 | TGCAGCCGAACCGGCACGGTTTCGTGGGGA | -1.01
128 | CTTTGTTAAAGCATATTTATTCAGGCCCAC | 0.83
129 | TAGGGCCTTGCTATGGAGTGGACTTTGGCT | 6.16
130 | GGGGAGGGCAGGGTCAGAACCTGCCCATGA | -1.06
131 | GACAGATCAGAGAGATTTTCACATGGAATG | -0.521
132 | TCTTGTTTGCTAAGTGAGAACACCGTGTAC | 1.63
133 | TCGTGATAGTGACCACCTGGTGGACCCAGC | 3.66
134 | CCCGCAGCCCAGTCTTGGCCCCACCGGTCA | 2.25
135 | ATAAAGAACTCTAAGCAGCGAAGCTGTGTC | -1.02
136 | GTGTGTTTACATAACCTGCCCAAAGTGGGG | 0.748
137 | ACAAAACCTGTTTAGGATTAAACAAACAAG | -1.2
138 | ATGGTGGCCATTCTGATTTGATAAGATGTG | 0.774
139 | TTCTGCACCTGCCCTCAGGGAGCTCCAGCA | -0.952
140 | GAAAGACCTTTTCCCTCCCTCCCAGTACAA | 3.69
141 | AACCAGATGGCCCTCTCCAAGGCGGTGTGG | -1.1
142 | ACTTCAAAGCGCAGCGCGGGGCTCAAAGGC | -1.13
143 | TTCCTGCTCATGCAGCTGCTGCCCAAAGGT | -1.05
144 | TGTTCAAGACCAAAGGTCATGGCAACAGTT | 4.21
145 | ATGATTGACAGGTTATTTCAATTACAAAGC | 1.06
